Results as given in PubChem BioAssay AID651820 (National Center for Advancing Translational Sciences (NCATS), 2012).
The campaign covered roughly 340,000 compounds. About 12,000 (3.5%) were called active. Inconclusive results, whose numbers are uncertain, are shown with a selection of clear calls. Calls follow the shape of the dose curve; as a rule, active = well fitted inhibition curve with a large enough effect; inconclusive = small, poorly fitted or top-dose-only effect, or another doubt; inactive = no such curve, though single readings can be large or run the other way. No potency is given beside an inconclusive call; the fits are too rough.

Test: qHTS Assay for Inhibitors of Hepatitis C Virus (HCV)
Conditions: Huh7.5.1 HCVcc-Cre (HCVcc is cell-culture hepatitis C virus) infection, luciferase reporter, 44 h; series mostly up to 41.8 µM
How it was run: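 Compounds are dispensed onto cells plated 4 h earlier at 1,000 per well, with HCVcc-Cre virus (about 0.5 moi) added next. Following 44 h of culture, luminescent signal is measured for 15 sec after 15 min with substrate at room temperature.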
Potency is read from the fitted curve at half-maximal effect; tags tell the direction and shape of the fitted curve.

| Compound | Potency |
| --- | --- |
| CCOC(=O)c1c(NC(=O)COC(=O)CCS(=O)(=O)c2ccc(C)cc2)sc(C)c1C | inconclusive [inhibitor, single point] |
| COc1ccccc1NC(=O)NCC1(N(C)C)CCCCC1 | inactive |
| O=C(Nc1ccc(C(=O)N2CCC(N3CCCC3)CC2)cc1)c1ccc(Br)o1 | inactive |
| CCOC(=O)c1c(Nc2ccc(Cl)cc2)sc(/C=C2\C=Nc3ccccc32)c1O | inconclusive [inhibitor, partial curve, poor fit] |
| COc1ccc(S(=O)(=O)N(C)C[C@H]2Oc3c(NC(=O)C4CCCCC4)cccc3C(=O)N([C@H](C)CO)C[C@@H]2C)cc1 | inconclusive [inhibitor, partial curve, poor fit] |
| OCCC1CN(Cc2cnc(-c3ccccc3)s2)CCN1C1CCCC1 (configuration not stated) | inconclusive [inhibitor, single point] |
| CCOc1ccc(CN(C)c2nc(-c3cccnc3)nc3ccccc23)cc1OC | inconclusive [inhibitor, partial curve] |
| Cc1cc(Nc2ccccc2)n(C(=O)c2ccccc2)n1 | inconclusive [inhibitor, partial curve] |
| CCOCCCNC(=O)CN1C(=O)NC(Cc2c[nH]c3ccccc23)C1=O (configuration not stated) | inactive |
| Cc1nn(-c2ccccc2)c(N2CCCC2)c1/C=N/NC(=O)c1cc(-c2cccs2)nc2ccccc12 | inconclusive [inhibitor, full curve] |
| CCc1ccc2oc(-c3cc(N)cc(C)c3O)nc2c1 | inconclusive [inhibitor, single point] |
| c1ccc(-c2nc3cc4ccccc4cc3[nH]2)nc1 | inconclusive [inhibitor, single point] |
| O=C(/C=C/c1ccc(Cl)cc1Cl)N1CCN(c2ccc([N+](=O)[O-])c(N3CCOCC3)c2)CC1 | inconclusive [inhibitor, single point] |
| COc1ccc2[nH]c(CN3CCN(C(C)C)C(CCO)C3)c(C)c2c1 (configuration not stated) | inconclusive [inhibitor, single point] |
| COc1cccc(/C=N/Nc2cc(-n3nc(C)cc3-c3ccccc3)ncn2)c1O | active: 5.62 µM |
| O=C(Nc1cccc(C(=O)N2CCOCC2)c1)c1cccnc1 | inactive |
| CCN(CC)S(=O)(=O)c1cc(NC(=O)CCNC(=O)c2ccco2)ccc1C | inactive |
| Cc1ccccc1NC(=O)Cc1nc(COC(=O)COc2cccc(C)c2C)cs1 | inconclusive [inhibitor, single point] |
| CN=c1scc(-c2ccc(Br)cc2)n1C | inactive |
| COc1cc(/C=C/C(=O)c2ccc(F)cc2)cc(OC)c1OC | inconclusive [inhibitor, partial curve] |
| CCc1nc(SCc2ccc(OCC(C)C)cc2)n[nH]1 | inconclusive [inhibitor, single point] |
| CCCCC(=O)Nc1ccc(NC(=O)c2ccc([N+](=O)[O-])cc2Cl)cc1OC | inconclusive [inhibitor, partial curve] |
| Cc1cc(C)c(C#N)c(SCCS(=O)(=O)c2ccc(C(C)(C)C)cc2)n1 | inconclusive [inhibitor, partial curve] |

| Compound | Potency |
| --- | --- |
| Cc1cc2oc(=O)cc(-c3cc4ccccc4o3)c2cc1O | inconclusive [inhibitor, full curve] |
| CC1(C)Cc2c(c(-c3ccco3)nc3sc4c(NCCN5CCOCC5)ncnc4c23)CO1 | inconclusive [inhibitor, single point] |
| COc1cccc(/C=N/NC(=O)CNC(=O)COc2cccc(C)c2)c1O | inconclusive [inhibitor, single point] |
| Cc1nn(-c2ccccc2)c(C)c1-c1nnc(-c2c(C)nn(-c3ccccc3)c2C)o1 | inconclusive [inhibitor, partial curve] |
| Cn1c(=O)c2c(ncn2CC(=O)Nc2ccccc2)n(C)c1=O | inactive |
| CCCc1cc(C(=O)OC)c(NC(=O)c2cc(C)on2)s1 | inconclusive [inhibitor, single point] |
| O=C(c1ccccc1)c1ccc(Oc2ccc([N+](=O)[O-])cc2[N+](=O)[O-])cc1 | inconclusive [inhibitor, single point] |
| CCc1noc(C)c1C(=O)Nc1cc(S(=O)(=O)N2CCCCC2)ccc1N(C)C | inactive |
| CC(C)Oc1ccc(/C=C(\NC(=O)/C=C/c2ccco2)C(=O)NCCc2nc3ccccc3[nH]2)cc1 | inconclusive [inhibitor, single point] |
| CCCCn1nc2cc(C(=O)N[C@H](C)C3CCCCC3)ccc2c1OCC | inconclusive [inhibitor, partial curve] |
| Cc1cc(OCC(=O)NC2CC(C)(C)NC(C)(C)C2)c2c(C)c(C)c(=O)oc2c1 | inconclusive [inhibitor, full curve] |
| Cc1ccc(C=Nc2ccccc2C(=O)Nc2ccccc2)cc1 | inactive |
| CC1CCCC(C)N1/N=C/c1ccc(C#N)cc1 (configuration not stated) | inactive |
| COc1ccc(Cl)cc1NC(=O)Cc1c(F)cccc1Cl | inconclusive [inhibitor, full curve] |
| CC(C)[C@H](NC(N)=O)C(=O)Nc1cccc(S(=O)(=O)N2CCOCC2)c1 | inactive |
| COc1ccc(-c2noc(CCCC(=O)NC3CCCCC3)n2)cc1 | inconclusive [inhibitor, single point] |
| COc1ccc(NC(=O)Nc2cccc3c2O[C@H](CN(C)C(=O)NC2CCCCC2)[C@@H](C)CN([C@H](C)CO)C3=O)cc1 | inconclusive [inhibitor, full curve, poor fit] |
| CCOc1ccccc1NC(=O)CN1c2cccc3cccc(c23)S1(=O)=O | inconclusive [inhibitor, single point] |
| O=C(/C=C/c1cc([N+](=O)[O-])ccc1OC(F)F)Nc1cccc([N+](=O)[O-])c1 | inconclusive [inhibitor, full curve] |
| Cc1ccc2c(c1)-c1c(ssc1=S)C(C)(C)N2C(=O)CN1C(=O)c2ccccc2C1=O | inconclusive [inhibitor, single point] |
| CC1=CC(C)(C)N(C(=O)CCl)c2cc(C)ccc21 | inconclusive [inhibitor, single point] |
| O=C(Nc1ccc(-c2nc3ccccc3o2)cc1)c1ccc2c(c1)OCO2 | inconclusive [inhibitor, single point] |
| O=C(/C=C/c1ccccc1)CC(=O)c1ccccc1O | active: 11.2 µM |

| Compound | Potency |
| --- | --- |
| C=CCC(=O)N1CCCC(CNC(=O)c2ccc(-c3ccccc3)cc2)C1 (configuration not stated) | inconclusive [inhibitor, single point] |
| CCOC(=O)C1=C(COC(=O)c2ccc(OC)c(OC)c2OC)NC(=O)NC1C (configuration not stated) | inconclusive [inhibitor, full curve] |
| CCOC(=O)CNS(=O)(=O)c1cc(-c2n[nH]c(=O)c3ccccc23)ccc1C | inactive |
| COc1ccc(-c2oc(=O)c3cc(OC)c(OC)cc3c2C#CCCCO)cc1 | inconclusive [inhibitor, full curve] |
| CCOC(=O)c1cnc2ccc(C(=O)OC)cc2c1NCCc1ccc(OC)c(OC)c1 | inconclusive [inhibitor, single point] |
| COc1ccc(-c2nc(C#N)c(NCc3ccc(C)cc3)o2)cc1OC | inconclusive [inhibitor, partial curve] |
| O=C(Nc1ccc(-c2nc3cccnc3s2)cc1)c1ccco1 | inconclusive [inhibitor, full curve, poor fit] |
| O=[N+]([O-])c1ccccc1Nc1nc(-c2cccnc2)cs1 | inconclusive [inhibitor, single point] |
| O=C(NCCOC12CC3CC(CC(C3)C1)C2)c1cccc(Br)c1 | inconclusive [inhibitor, single point] |
| COc1ccc(-c2cc3cc(-c4cc(OC)c(OC)c(OC)c4)ccc3o2)cc1 | inconclusive [inhibitor, partial curve] |
| COc1ccc(/C=C/c2nnc(NC(=O)COc3cccc(C)c3)s2)cc1 | inactive |
| Cc1c(NC(=O)CCC(=O)N2CCCCC2)c(=O)n(-c2ccccc2)n1C | inactive |
| N#CCCN1CCN(C2=NC(=O)C(=C3CCCCC3)S2)CC1 | inactive |
| N#CCCN1CCN(C(=S)c2ccc(-c3cc(Cl)ccc3Cl)o2)CC1 | inactive |
| CCOc1ccc(N(CC(=O)NC2CCCC(C)C2C)S(=O)(=O)c2c(C)noc2C)cc1 (configuration not stated) | inactive |
| COc1ccc(NC(=O)CN(C)C(=O)c2cccc(Oc3ccccc3)c2)cc1 | inconclusive [inhibitor, partial curve] |
| COc1cc(/C=C2\Oc3ccc(C#Cc4ccc(O)cc4)cc3C2=O)cc(OC)c1 | inconclusive [inhibitor, full curve] |
| CCOC(=O)c1c(C)[nH]c(C(=O)N/N=C/c2cc([N+](=O)[O-])ccc2O)c1C | active: 11.2 µM |
| CNc1nc(N)c([N+](=O)[O-])c(Nc2ccccc2OC)n1 | inconclusive [inhibitor, full curve] |
| O=C(Cc1ccccc1Cl)Nc1cccc(S(=O)(=O)N2CCCCCC2)c1 | inconclusive [inhibitor, full curve] |
| OC1CC2CCC(C1)N2CCCN1c2ccccc2Sc2ccc(Cl)cc21 (configuration not stated) | inconclusive [inhibitor, single point] |
